Experimental findings from paper PMC7819943, “Rice protein-binding microarrays: a tool to detect cis-acting elements near promoter regions in rice” are described below.

This is one part of the list.

For the assay, the target named is T1, OsWOX13 (Oryza sativa, UniProt Q5QMM3 1-267).
T1 sequence: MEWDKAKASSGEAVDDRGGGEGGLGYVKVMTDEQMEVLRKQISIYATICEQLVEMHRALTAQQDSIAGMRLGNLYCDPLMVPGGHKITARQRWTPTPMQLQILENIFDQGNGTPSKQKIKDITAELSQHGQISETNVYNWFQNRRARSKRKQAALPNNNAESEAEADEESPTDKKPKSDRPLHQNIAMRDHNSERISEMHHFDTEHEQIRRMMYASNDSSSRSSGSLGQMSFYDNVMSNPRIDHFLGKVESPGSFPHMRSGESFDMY
Description: protein-binding microarray (RPBM); PBS, 2% BSA, 51.3 ng/ul salmon testes DNA, 50 uM zinc acetate, 200 nM TF, 25 C, 1 h; high values mean tight binding. The conditions noted are these: protein: recombinant; tags: N-terminal polyhistidine and DsRed monomer fusion (pET32a); label: CyDye5-dUTP incorporated in the synthesized complementary strand; 3' TTTTT single-stranded linker to array surface; dsDNA, one strand shown. Put shortly: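 Polyhistidine-tagged DsRed fusions of transcription factors, joined at the N-terminus, were expressed in E. coli BL21-CodonPlus and isolated on Ni–NTA. They were incubated at 200 nM for 1 h at 25 °C on a custom Agilent array, double-stranded and BSA-blocked, in PBS with 2% BSA, salmon testes DNA and 50 µM zinc acetate. The binding signal is per-feature fluorescence intensity (arbitrary units) read on an Axon 4000B scanner after washing.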
On to “ATTCATTATATCCAATCTAATAGGCAATTCATACAATAGTCGGAGTCACCTAGTGCAG”, for which the binding signal was 5120 fluorescence intensity (a.u.). “GATAGACTAATTGGTAAACACACATCAGAATATCAGATATCGGAGTCACCTAGTGCAG”: the binding signal is 25100 fluorescence intensity (a.u.). As to “CATGTTAAACAATCTAGAATGACAATTAATATGGGATGGACGGAGTCACCTAGTGCAG”, the binding signal was 8530 fluorescence intensity (a.u.). Turning to “GCGACCTAATCTCATCACTGATTACACCCAACAACAACACCGGAGTCACCTAGTGCAG”, the binding signal was 15500 fluorescence intensity (a.u.). Next, “TCAAAATCTGATACAAATCAATCATACCGCGACATCGCACCGGAGTCACCTAGTGCAG”: 13800 fluorescence intensity (a.u.); “ATAATAACAGATTTTGTTAACGAAACTGCACCCAACTCTGCGGAGTCACCTAGTGCAG”: 26600 fluorescence intensity (a.u.); “GGATAAAATTTAAACTTATTATATTTTAGGTCGGTGGGAACGGAGTCACCTAGTGCAG”: 3790 fluorescence intensity (a.u.).

With “AAGTTTAAAATTATTAATACTCAATTAATCATGCGCTCATCGGAGTCACCTAGTGCAG”, the binding signal was 4150 fluorescence intensity (a.u.). As for “CCCAATAATCAATCCAGATTTTCGCAGTCGATGCAGATTGCGGAGTCACCTAGTGCAG”, the binding signal is 16100 fluorescence intensity (a.u.). Next, “ACACATAGACATCTGAGGCTAATTAGCTCTGTTAATCGCGCGGAGTCACCTAGTGCAG”: 9020 fluorescence intensity (a.u.); “ACGAAAATTGAATTCGCTGACAAGTTAAGGGACCTTAGATCGGAGTCACCTAGTGCAG”: 15700 fluorescence intensity (a.u.); “TGCGTGATTAGCTGATAATACACGTGAATTATGTATGACGCGGAGTCACCTAGTGCAG”: 52800 fluorescence intensity (a.u.).

As to “CGTAATTGTTTAGTTGCAAAAGGATAAGCACCAAACCAAACGGAGTCACCTAGTGCAG”, the binding signal is 12400 fluorescence intensity (a.u.). Next, “CAACAAATCAACACTGTTCGTCTGTCCCTACGTACCGGACCGGAGTCACCTAGTGCAG”: 3560 fluorescence intensity (a.u.); “TCTCGATCGACTAGTAATTAATTATACTTATCATTTAAACCGGAGTCACCTAGTGCAG”: 11300 fluorescence intensity (a.u.); “ATGAATTGTTAATTTTGCAAGCTGAACTTCTCATGTTTGGCGGAGTCACCTAGTGCAG”: 11100 fluorescence intensity (a.u.). “CAAATCATCAAATTACGATTTTAACGTCAAATATTTATGACGGAGTCACCTAGTGCAG”: the binding signal was 6690 fluorescence intensity (a.u.). For the sequence “GCTAAATAATTGAAAGGAATAAGTTCACTTGAGGTCTCTCCGGAGTCACCTAGTGCAG”, the binding signal was 33800 fluorescence intensity (a.u.). Next, “TTATAATAAATCAATAATTTAAGACCTTTATATTTGACTGCGGAGTCACCTAGTGCAG”: 15800 fluorescence intensity (a.u.); “GTTTGATCGATTTTGTCTCTAATTTTAGGCAACTGGCATTCGGAGTCACCTAGTGCAG”: 6670 fluorescence intensity (a.u.). Next, “TCGATATAATTAATCATTTCCAAGCGGTGTCGTTGTTTGGCGGAGTCACCTAGTGCAG”: 20600 fluorescence intensity (a.u.); “TATGTCAATTATCATAGGGTTAAATTGAAAACTACGAATTCGGAGTCACCTAGTGCAG”: 29900 fluorescence intensity (a.u.).

On to “ATTTGACGGACCCACATAAATCATGATCAGCATTCTGCAACGGAGTCACCTAGTGCAG”, for which the binding signal is 5240 fluorescence intensity (a.u.). “TATGACATGTCTTTATTAATTTATATATAAGTATGTAAAACGGAGTCACCTAGTGCAG”: the binding signal is 6490 fluorescence intensity (a.u.). The result for “TATACCTGTTTGATGGTTGCTAATTGCCCAGCAAACATCACGGAGTCACCTAGTGCAG” reads 3820 fluorescence intensity (a.u.); that for “TATAGATAAATTCTCTAAGATAATTTGCACACAATATTGACGGAGTCACCTAGTGCAG”, 4270 fluorescence intensity (a.u.); that for “TCGCTGGCGTTGACGACGCAAATTGACGCGACGCGAGCCCCGGAGTCACCTAGTGCAG”, 4430 fluorescence intensity (a.u.). Next, “AATCACGCGCTAATAGACTATTATGTTTTCCGTATGCACTCGGAGTCACCTAGTGCAG”: 6060 fluorescence intensity (a.u.); “TTAAATTTAAAATACTACAATGACGTGATCCAGAGCCTCTCGGAGTCACCTAGTGCAG”: 9430 fluorescence intensity (a.u.). Next, “GTTTGATTTGCAAGAGCAAGTGGCAACCATCCAACCATCCCGGAGTCACCTAGTGCAG”: 34100 fluorescence intensity (a.u.); “CAAATAATCCACAATCAATAAGCCGAAAAGAACAAGACCTCGGAGTCACCTAGTGCAG”: 3340 fluorescence intensity (a.u.); “ATCTAAATTGGTAGTATTAGAATATCTTCTATCTGCTCAACGGAGTCACCTAGTGCAG”: 26300 fluorescence intensity (a.u.). Regarding “TGTGATTTTCTGTAAATTTAACTATAGATCATGTGGTTTTCGGAGTCACCTAGTGCAG”, the binding signal was 21900 fluorescence intensity (a.u.). The result for “GAAAGATGATTTGGCAAGTAAATAAATAAGAAAAGAGAAGCGGAGTCACCTAGTGCAG” reads 4860 fluorescence intensity (a.u.). Next, “CCGCGTGACCAATTGACATGTCGGCCACCCAACAAGTGGGCGGAGTCACCTAGTGCAG”: 4850 fluorescence intensity (a.u.); “TTGAATAGGGGTTTAATTAGATTCGTAGTTTTAGAATACGCGGAGTCACCTAGTGCAG”: 7620 fluorescence intensity (a.u.). Next, “ACCAAATTTGATCGTTAACATTGAGCCCATCAACTTTTGACGGAGTCACCTAGTGCAG”: 27500 fluorescence intensity (a.u.); “TTAAATAAATCATTGCAGTGTAAATGGTAATATTCAGGCCCGGAGTCACCTAGTGCAG”: 12200 fluorescence intensity (a.u.); “CTTAAATAACAGATATTTTAATCCAAACAGTTATGATATACGGAGTCACCTAGTGCAG”: 3560 fluorescence intensity (a.u.). Turning to “ATTATTTATTTTGTTTGTGATTTGCTTTATTATTAAAATACGGAGTCACCTAGTGCAG”, the binding signal is 6680 fluorescence intensity (a.u.). The result for “AATATCAATTTAGACACGAATTTTATAAGCAAATTATAGGCGGAGTCACCTAGTGCAG” reads 13600 fluorescence intensity (a.u.); that for “AATTATACAATCAATCAAATACTGAAATTTAAAATTGGTACGGAGTCACCTAGTGCAG”, 15800 fluorescence intensity (a.u.).
